Data from PubChem BioAssay AID2147 (National Center for Advancing Translational Sciences (NCATS), 2009).
Values joined by “and” are separate entries in the source; they are usually repeats but may differ in a detail not shown here. Identical values can stand only once. Hit rate of the full screen: of about 230,000 compounds, about 3,600 (1.6%) were called active. This list was built around the results that the source calls inconclusive (neither active nor inactive); the mix of calls is not that of the screen. Calls follow the shape of the dose curve; as a rule, active = well fitted inhibition curve with a large enough effect (not every such curve was filed as active); inconclusive = small, poorly fitted or top-dose-only effect, or another doubt; inactive = no such curve, though single readings can be large or run the other way. A potency beside an inconclusive call is a rough fit, not a confirmed value.

target: Lysine-specific demethylase 4E (Homo sapiens) (UniProt B2RXH2); experiment: qHTS Assay for Inhibitors of Human Jumonji Domain Containing 2E (JMJD2E); details: JMJD2E catalytic domain, FDH-coupled NADH fluorescence (FDH is formaldehyde dehydrogenase); series mostly up to 57.1 µM; activity change, negative = inhibition: at the top concentration
Chain of UniProt B2RXH2 (B2RXH2 whole entry, looked up, the tested form may be a part): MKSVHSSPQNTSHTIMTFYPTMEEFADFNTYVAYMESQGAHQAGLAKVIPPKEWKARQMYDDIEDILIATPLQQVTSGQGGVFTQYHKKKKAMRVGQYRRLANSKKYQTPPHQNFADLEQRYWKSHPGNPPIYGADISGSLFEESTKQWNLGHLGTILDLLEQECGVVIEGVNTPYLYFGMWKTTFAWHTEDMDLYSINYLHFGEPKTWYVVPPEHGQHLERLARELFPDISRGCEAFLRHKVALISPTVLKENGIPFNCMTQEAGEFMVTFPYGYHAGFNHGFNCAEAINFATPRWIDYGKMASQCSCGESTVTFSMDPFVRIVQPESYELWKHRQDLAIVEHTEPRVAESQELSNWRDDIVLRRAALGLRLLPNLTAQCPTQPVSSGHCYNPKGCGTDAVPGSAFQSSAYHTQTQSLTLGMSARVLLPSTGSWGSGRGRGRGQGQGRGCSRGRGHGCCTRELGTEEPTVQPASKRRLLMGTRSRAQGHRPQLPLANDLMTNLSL
Also: nearly all actives have a fitted effect of over 50% in size.
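For activity change, negative = inhibition in this document: 0% = wells with enzyme and -100% = buffer wells without enzyme.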
Potency is read from the fitted curve at half-maximal effect; tags tell the direction and shape of the fitted curve.

Q: Which Potency does the source give for `Cc1cc(=O)[nH]c(SCC(=O)Nc2cccc3ccccc23)c1C#N` here?
A: inconclusive: 39.8 µM [inhibitor, single point]

Q: For `FC(F)(F)c1cc(-c2ccco2)nc(-n2nc(C(F)(F)F)cc2C2CC2)n1`, which Potency is on record?
A: inconclusive: 28.2 µM [inhibitor, partial curve]

Q: `CN(C)C(=O)COC(=O)c1ccccc1Nc1ccc(SC(F)F)cc1` was tested. Which “activity change, negative = inhibition” value did it give?
A: inactive: -6.42%

Q: `CCCn1c(/N=C/c2ccc3c(c2)OCO3)nc2ccccc21` was tested. Which Potency did it give?
A: inconclusive: 11.2 µM [inhibitor, partial curve]

Q: How did the Potency turn out when `CNC(=O)/C(C#N)=C/c1c(N(Cc2ccccc2)Cc2ccccc2)nc2c(C)cccn2c1=O` was run?
A: inconclusive: 28.2 µM [inhibitor, partial curve]

Q: For `Cc1cccc(N=C2NC(=O)/C(=C/C=C/c3ccco3)S2)c1`, which Potency is on record?
A: inconclusive: 39.8 µM [inhibitor, single point]

Q: Which “activity change, negative = inhibition” value does the source give for `CN(C(=O)CSCC(=O)O)C1CCCCC1` here?
A: inactive: -2.22%

Q: Which Potency does the source give for `COc1ccc(N2C(=O)[C@@H]3[C@H](C2=O)[C@H]2C=CC=NN2[C@@H]3C(=O)Nc2ccc(Cl)cc2)cc1` here?
A: inconclusive: 20 µM [inhibitor, single point]

Q: How did the Potency turn out when `COc1cc(/C=N/NC(=O)CCn2c3ccccc3c3ccccc32)cc(OC)c1OC` was run?
A: inconclusive: 35.5 µM [inhibitor, single point]

Q: How did the “activity change, negative = inhibition” value turn out when `Cc1cccc(NC(=O)c2ccccc2Br)n1` was run?
A: inactive: -5.09%

Q: With `Cc1c(NC(=O)CN2CC(C)OC(C)C2)c(=O)n(-c2ccccc2)n1C` (centres undefined) as the compound, how does the Potency read?
A: inconclusive: 25.1 µM [inhibitor, single point]

Q: `Cc1cccc(Oc2coc3cc(OC(=O)c4cncc(Br)c4)ccc3c2=O)c1` was tested. Which Potency did it give?
A: inconclusive: 31.6 µM [inhibitor, partial curve]

Q: `CC(=O)N/C(=C/c1ccc(OS(=O)(=O)c2ccc(C)cc2)cc1)C(=O)NCCO` was tested. Which “activity change, negative = inhibition” value did it give?
A: inactive: 3.68%

Q: How did the Potency turn out when `COc1ccccc1-n1cnc2cc(NCc3cccs3)ccc21` was run?
A: inconclusive: 25.1 µM [inhibitor, single point]

Q: With `COc1ccc(Br)cc1C(=O)NC(=S)Nc1ccc(Cl)c(C(=O)O)c1` as the compound, how does the “activity change, negative = inhibition” value read?
A: inactive: -9.4%

Q: How did the Potency turn out when `CCCn1nc(NC(=O)c2ccco2)c2cc3ccccc3nc21` was run?
A: inconclusive: 31.6 µM [inhibitor, partial curve]

Q: For `Cc1ccccc1CNC(=O)Cc1cccs1`, which “activity change, negative = inhibition” value is on record?
A: inactive: 2.84%

Q: How did the “activity change, negative = inhibition” value turn out when `Cc1cc(/C=N\NC(=O)c2cccs2)c(C)n1-c1ccc2ncccc2c1` was run?
A: inactive: -18.5%

Q: With `O=C(Nc1ccccc1)OCc1cn(-c2ccc(Cl)cc2)nn1` as the compound, how does the Potency read?
A: inconclusive: 4.47 µM [inhibitor, single point]

Q: Which Potency does the source give for `CCOC(=O)COc1cc2c3c(c(=O)oc2cc1C)CCCC3` here?
A: inconclusive: 25.1 µM [inhibitor, partial curve]

Q: `COc1ccc(-c2nnc(NC(=O)c3cc(C)on3)s2)cc1` was tested. Which Potency did it give?
A: inconclusive: 35.5 µM [inhibitor, single point]

Q: Which “activity change, negative = inhibition” value does the source give for `CCc1ccc(C(=O)NN(C(=O)c2ccc(CC)cc2)C(C)(C)C)cc1` here?
A: inactive: -3.69%

Q: For `CCOC(=O)NN1C(=O)c2ccccc2NC1c1ccccc1F` (centres undefined), which Potency is on record?
A: inconclusive: 31.6 µM [inhibitor, partial curve]

Q: How did the Potency turn out when `CCOC(=O)c1ccc(Nc2ccc([N+](=O)[O-])cn2)cc1` was run?
A: inconclusive: 39.8 µM [inhibitor, single point]

Q: `O=C(c1ccc(S(=O)(=O)N2CCCCCC2)cc1)N1CCC(CN2C(=O)c3cccc4cccc(c34)C2=O)CC1` was tested. Which Potency did it give?
A: inconclusive: 22.4 µM [inhibitor, partial curve]

Q: Which Potency does the source give for `CCCCCCCCNC(=S)NCCN1CCCCC1` here?
A: inconclusive: 28.2 µM [inhibitor, single point]

Q: Which Potency does the source give for `CCOc1ccc(/C=C/C(=O)c2c(O)c3ccccc3oc2=O)cc1` here?
A: inconclusive: 39.8 µM [inhibitor, single point]

Q: Which Potency does the source give for `Fc1ccc(C2=CC(c3ccco3)n3nnnc3N2)cc1` (centres undefined) here?
A: inconclusive: 31.6 µM [inhibitor, single point]

Q: With `CN1CCc2c(sc3c2C(=O)NC(c2cn(Cc4ccccc4)c4ccccc24)N3)C1` (centres undefined) as the compound, how does the Potency read?
A: inconclusive: 28.2 µM [inhibitor, partial curve]

Q: For `Cc1cccc(-c2nc(C#N)c(NCc3ccco3)o2)c1`, which Potency is on record?
A: inconclusive: 31.6 µM [inhibitor, partial curve]

Q: How did the “activity change, negative = inhibition” value turn out when `CCOC(=O)c1sc(NC(=O)c2ccncc2)c(C#N)c1C` was run?
A: inactive: -4.8%

Q: How did the “activity change, negative = inhibition” value turn out when `COc1ccc(NCC(=O)n2c(C)c(C)c3ccccc32)cc1` was run?
A: inactive: -20.1%

Q: Which Potency does the source give for `NC(=O)Cn1nc2sc3ccccc3n2c(=O)c1=O` here?
A: inconclusive: 35.5 µM [inhibitor, partial curve]

Q: For `COc1cccc(-c2cc(C(F)(F)F)nc(N3CCCCC3)n2)c1`, which Potency is on record?
A: inconclusive: 39.8 µM [inhibitor, single point]

Q: Which Potency does the source give for `CCN(CC)c1ccc2c(C)c(-c3ccc(N)cc3)c(=O)oc2c1` here?
A: inconclusive: 28.2 µM [inhibitor, single point]

Q: For `COC(=O)c1cccc(-c2ccc(/C=N/N3C(=O)C4C5C=CC(C6CC56)C4C3=O)o2)c1` (centres undefined), which Potency is on record?
A: inconclusive: 39.8 µM [inhibitor, single point]

Q: For `COc1ccc(CN2CCN(C(=O)C3CC(=O)N(C4CCCCCC4)C3)CC2)c(OC)c1OC` (centres undefined), which “activity change, negative = inhibition” value is on record?
A: inactive: 5.74%

Q: How did the “activity change, negative = inhibition” value turn out when `CCN(Cc1ccncc1)C(=O)c1ccc2c(c1)S(=O)(=O)c1ccccc1C2=O` was run?
A: inactive: 0.641%

Q: `CCOC(=O)Cn1c(C)nc2c(C(=O)OCC)sc(C)c2c1=O` was tested. Which Potency did it give?
A: inconclusive: 28.2 µM [inhibitor, partial curve]

Q: `Cc1c(C(=O)Oc2cccc3cccnc23)cccc1[N+](=O)[O-]` was tested. Which Potency did it give?
A: inconclusive: 12.6 µM [inhibitor, partial curve]

Q: For `Cn1c(C(=O)NCCc2c[nH]c3ccccc23)cc2sccc21`, which “activity change, negative = inhibition” value is on record?
A: inactive: -2.78%

Q: How did the “activity change, negative = inhibition” value turn out when `CC1=C(C(=O)OCc2ccccc2)C(c2ccsc2)C(C#N)=C(N)O1` (centres undefined) was run?
A: inactive: -14.4%

Q: For `CCOC(=O)c1cnc2c(-c3ccccc3)c(C)nn2c1N`, which Potency is on record?
A: inconclusive: 35.5 µM [inhibitor, single point]

Q: `COc1ccc(-c2coc3cc4oc(=O)cc(C)c4cc23)cc1F` was tested. Which Potency did it give?
A: inconclusive: 22.4 µM [inhibitor, partial curve]

Q: With `COc1ccc2nc(C)cc(SCC(=O)O)c2c1` as the compound, how does the Potency read?
A: inconclusive: 25.1 µM [inhibitor, partial curve] and inconclusive: 28.2 µM [inhibitor, single point]

Q: For `COc1ccc(C(=O)c2oc3ccccc3c2N)cc1`, which Potency is on record?
A: inconclusive: 28.2 µM [inhibitor, partial curve]

Q: With `Cc1ccc(N2CC(C(=O)NCc3ccc(C)n3C)CC2=O)cc1` (centres undefined) as the compound, how does the Potency read?
A: inconclusive: 31.6 µM [inhibitor, single point]

Q: Which Potency does the source give for `O=c1[nH]c2ccccc2[nH]c1=O` here?
A: inconclusive: 25.1 µM [inhibitor, single point]

Q: How did the “activity change, negative = inhibition” value turn out when `CCCOC(=O)CN1C(=O)c2ccccc2C1=O` was run?
A: inactive: -2.74%

Q: How did the Potency turn out when `CCOc1cccc(C2C(C(=O)c3ccc(C)o3)=C(O)C(=O)N2Cc2ccncc2)c1` (centres undefined) was run?
A: inconclusive: 39.8 µM [inhibitor, single point]

Q: `COc1ccc(/C=N/Nc2nc3ccccc3c(=O)[nH]2)cc1` was tested. Which Potency did it give?
A: inconclusive: 31.6 µM [inhibitor, partial curve]

Q: How did the “activity change, negative = inhibition” value turn out when `CCOC(=O)CN1C(=O)C(O)(CC(=O)c2ccco2)c2ccccc21` (centres undefined) was run?
A: inactive: 2.7%

Q: How did the “activity change, negative = inhibition” value turn out when `O=C(NC1CCCCC1)C(c1ccc(F)cc1)N(CCc1ccccc1)C(=O)CN1C(=O)c2ccccc2S1(=O)=O` (centres undefined) was run?
A: inactive: 0.518%

Q: For `Cc1ccc(CSCCNC(=O)c2ccc(NS(C)(=O)=O)cc2)cc1`, which Potency is on record?
A: inconclusive: 35.5 µM [inhibitor, single point]

Q: With `O=C(OCC(=O)N1CCN(C(=O)c2ccco2)CC1)c1cc(-c2ccc(Cl)c(Cl)c2Cl)nc2ccccc12` as the compound, how does the Potency read?
A: inconclusive: 28.2 µM [inhibitor, single point]

Q: For `Cc1c(S(=O)(=O)c2ccccn2)c(N)n(Cc2ccccc2Cl)c1C`, which Potency is on record?
A: inconclusive: 39.8 µM [inhibitor, single point]

Q: `CCOC(=O)c1ccc(N=c2sc(C(=O)OC)cc(=O)n2CCCN2CCOCC2)cc1` was tested. Which Potency did it give?
A: inactive

Q: How did the Potency turn out when `CCc1ccc2[nH]c(=O)c(CN(Cc3ccc4c(c3)OCO4)Cc3nnnn3C3CCCC3)cc2c1` was run?
A: inconclusive: 35.5 µM [inhibitor, single point]

Q: With `CS(=O)(=O)Nc1ccc(C(=O)NCCSCc2ccccc2)cc1` as the compound, how does the Potency read?
A: inconclusive: 39.8 µM [inhibitor, single point]

Q: Which Potency does the source give for `COc1cccc(-c2nnc(NC(=O)Cc3cccs3)s2)c1` here?
A: inconclusive: 25.1 µM [inhibitor, partial curve]

Q: For `COc1cccc(C2C3=C(Nc4[nH]n(-c5ccccc5)c(=O)c42)c2ccccc2C3=O)c1` (centres undefined), which “activity change, negative = inhibition” value is on record?
A: inactive: 7%

Q: Which “activity change, negative = inhibition” value does the source give for `CCOc1ccc(Nc2nc(Cc3nnc(SCC(=O)NCc4ccco4)n3CC)cs2)cc1` here?
A: inactive: -5.68%

Q: `CCOC(=O)c1ccc(NC(=O)C(C)N2C(=O)c3ccccc3C2=O)cc1` (centres undefined) was tested. Which Potency did it give?
A: inconclusive: 35.5 µM [inhibitor, single point]

Q: With `COc1cc2cc(C(=O)Nc3ccccc3)c(N)nc2cc1OC` as the compound, how does the Potency read?
A: inconclusive: 28.2 µM [inhibitor, partial curve]

Q: How did the Potency turn out when `CC(=O)NCCc1cc2ccc(C)c(C)c2[nH]c1=O` was run?
A: inconclusive: 14.1 µM [inhibitor, partial curve]

Q: With `Cc1cccc(C(=O)Nc2sc3c(c2C#N)CCCCC3)c1` as the compound, how does the Potency read?
A: inconclusive: 35.5 µM [inhibitor, partial curve]

Q: Which Potency does the source give for `Cc1cc(C(=O)N2CCN(c3ccc(C(F)(F)F)cn3)CC2)c(C)o1` here?
A: inconclusive: 31.6 µM [inhibitor, single point]

Q: With `Cn1c(-c2ccc3c(c2)OCO3)c(C(=O)O)c(=O)c2ccccc21` as the compound, how does the Potency read?
A: inconclusive: 25.1 µM [inhibitor, partial curve]

Q: How did the “activity change, negative = inhibition” value turn out when `O=C(NCc1nc(-c2ccc(C(F)(F)F)cc2)no1)Nc1ccc(OC(F)(F)F)cc1` was run?
A: inactive: -0.525%
